Source: the supplement of paper PMC3334620
The full ranking holds about 33,000 sequences; the median of “E-score (-0.5 to 0.5)” is about -0.04, and the highest 2% start at about 0.36. The list shows a part of the results.

Target: T1, Hmlalpha2 (UniProt P0CY09)
T1 sequence: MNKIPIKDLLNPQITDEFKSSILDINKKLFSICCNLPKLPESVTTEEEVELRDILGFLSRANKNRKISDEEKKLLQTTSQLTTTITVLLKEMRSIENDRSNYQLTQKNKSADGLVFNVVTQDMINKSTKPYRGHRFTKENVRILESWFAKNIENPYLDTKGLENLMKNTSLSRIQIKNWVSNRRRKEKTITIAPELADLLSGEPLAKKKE
Assay: PBM E-score (8-mer binding enrichment) (E-score (-0.5 to 0.5)); higher = stronger / more preferred TF binding; most listed sequences are background and not binding sites
Conditions: protein concentration: 200 nM; construct: GST-full length
Method: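 Universal 'all 10-mer' protein binding microarrays (Agilent AMADID 015681) probed with GST-tagged S. cerevisiae TFs (full-length or DBD) made by in vitro transcription/translation (PURExpress), about 100-200 nM. Bound TF was detected with fluorescent anti-GST. Each ungapped 8-mer (which stands for itself and its reverse complement) is scored by the PBM enrichment score (E-score), a modified Wilcoxon-Mann-Whitney statistic from -0.5 to +0.5, computed with the Universal PBM Analysis Suite. Scale: above 0.35 generally sequence-specific binding.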

Sequence	PBM E-score
GGGACAAC	-0.075
ATTAAGTA	0.146
CGTTAATA	0.23
CGGTTAGC	-0.177
CAATCAGG	-0.159
TATGACAA	0.118
GGGAAAAC	-0.184
GACTGTCC	-0.237
CAAGCTTA	-0.0927
GCCGGCCC	-0.31
GCCTTGCC	-0.238
CAGCTACA	0.135
GACTAAGC	-0.194
AATCTGAG	-0.142
CTTTAAAA	0.145
GAGTATAC	0.191
GTGCCCAA	-0.0154
ACGGTCTG	0.0399
CAATACGA	0.13
GGTAAGCA	-0.0728
ACGGGTTG	-0.15
ATGGGCGC	-0.196
TCTGTTAA	0.331
ACATGAGA	0.406
ATTAGAAC	0.122

Sequence	PBM E-score
AAACCCCT	-0.266
AGCACGCA	0.0284
ACTACGCT	0.106
TGCATCCA	-0.132
TCAGGGCA	-0.0208
CTACGCCA	-0.0483
CCGAAGTC	-0.122
GCACACCC	-0.227
GATTGTAA	0.247
AAACGGAG	-0.0644
CAACTTAG	0.191
CTGTTATA	0.29
ACGACGAG	-0.0291
AAGCTATT	-0.0585
CCGGAGCG	-0.232
GCCAACGA	-0.105
AAATTTAG	0.0397
AACAAACA	0.309
CAACGGGC	-0.145
CCTGCGTC	-0.101
GATGTTCA	0.0603
ACAAGTTG	0.119
GACGGTCC	-0.359
AGCCGTAC	-0.148
CGAGCATC	-0.152

Sequence	PBM E-score
AGAACGAA	-0.11
AGCCGACT	-0.219
ACAAACAG	0.139
TCTGGGCA	-0.286
TGAAGACA	0.0849
GATAAGAA	0.172
CCCGGCCA	-0.263
CGCGCCGA	0.0621
GCTGCGCC	-0.257
CAACTAAG	-0.0633
AGCCCTTC	-0.278
TTACGTAA	0.426
CAAGTCTC	-0.0515
CAGCTGCA	-0.283
ACGTCCAC	-0.0151
AGCATAAA	0.0915
GAACCAAA	-0.0881
AGCCACCC	-0.289
ACCGAAAT	-0.0128
AGCAGTCG	-0.161
AAAGGTAT	0.076
ACCTAAGC	-0.11
CGGATACC	-0.019
AGATCAGA	-0.0413
CGTTCTCC	0.00164

Sequence	PBM E-score
AGTAGGAC	-0.22
TGCCACCA	-0.261
ACTGATAG	-0.0287
ACGTTAAG	0.255
AGAAGCAC	-0.076
ATCTAACG	0.109
GGTGCTCA	-0.179
CGGACCGC	-0.316
AATCTAGA	0.0688
AAGACGTC	-0.148
CCTATGAG	-0.201
AGAGCGAC	-0.106
AGATGACG	0.0621
AAAAACGC	0.156
AGCTAGTC	-0.0662
CATCTCGC	-0.178
AGTTGCGA	-0.00184
ACCTGCAG	-0.0825
AACTGTCA	-0.083
CCCTCGAG	-0.0849
ACCCTTGA	-0.207
ACAGTGTA	0.244
ACAATGCG	0.163
GAGTTGCC	-0.11
TAAAGTGA	0.0621

Sequence	PBM E-score
ACGGTAAA	0.0343
ACTCCAAG	-0.0433
TCACGTCA	-0.0196
GTCTAGCA	-0.106
TTTGCAAA	0.0325
AGTGGGGC	-0.34
GAAGTGCA	-0.0586
CCGCGGTC	-0.158
GCGGTCAA	0.0293
AAGATAAT	0.0837
CATATTTA	0.206
GCCCTAGC	-0.223
AGCCAGAT	-0.0722
GGAACTAA	-0.00978
CTGACGGC	-0.355
AATTACGC	0.431
AGGCAAAA	-0.146
ATCACAGA	0.0948
GTCGACAA	-0.0181
TATACAAA	0.265
AGCTGTCG	-0.0732
CCAATGAG	-0.18
ACAAGTTC	0.0505
AACGGACC	-0.0165
ACCGAGAG	-0.191

Sequence	PBM E-score
GGGCGTGA	-0.0441
CCGAAGAG	-0.112
GCCGCTTA	-0.0607
TAATCCAA	0.148
ACTCGAAG	-0.154
CCCTCTCA	-0.244
CCCCAAAC	-0.0758
CCCGAGTA	0.00896
ACCCCCAT	-0.322
ATATGTCC	0.078
CCGCACTA	-0.0914
CTTCCTAA	0.0557
CGTGGGAG	-0.125
CCGAACCC	-0.307
CGCTCGCA	-0.145
AAAACAGA	0.137
ACTCTGTC	-0.0428
ATACTTTC	-0.0215
GCCACGAA	-0.24
GTCAGCAC	0.00173
CTTGATAA	0.188
TACTATCA	0.0862
ACCCGCGT	0.264
GGGGCAGA	-0.09
GTTTCGCA	-0.0552

Sequence	PBM E-score
CATATACC	-0.0816
ATCAGAGA	-0.0644
AATCACTC	-0.133
CATTCTAA	0.157
ACGCACCA	0.0903
ACTAAGCA	0.165
CCTGCTGC	-0.247
GAAGTGTC	-0.059
ACTGAGTG	-0.0291
AGGTTTCA	-0.106
ACGGGAAC	-0.0568
AGAAGGAA	-0.351
AGATAGCA	-0.0944
AGCGTTAA	0.0425
ACGTGTTA	0.45
GACTTTAC	0.148
CTAGGCGA	-0.354
ATTGTTCA	0.175
CTACATGA	0.421
CTGTTTGC	0.0985
TAGCGCGA	-0.102
AGGCCACG	-0.127
CGATTGAA	-0.126
CGATAGTA	-0.0878
ATACACAC	0.429

Sequence	PBM E-score
GAACAAAC	0.294
AGTCGTGG	-0.12
GGAATCGA	-0.107
AACATCAC	0.308
TTACAGAA	0.235
GTATCACA	0.215
CACGGTTA	0.214
CCATAGAA	-0.0708
CAAATTCC	0.0903
TGCGTTAA	0.397
CAAAGGGA	-0.0281
ACGGCGGA	-0.275
AGCACGTC	0.0271
CCGGGCCC	-0.182
AGTACCAA	0.128
CTTGACTC	-0.216
AAATGGCC	-0.0982
ACAGACGG	-0.164
GCTGTGGA	-0.156
ATGAGGCC	-0.277
ACTTACGG	-0.0366
AGCCGATA	-0.23
GGTCTGAA	-0.0484
GTAGAAAA	0.288
TGATCTAA	0.0816

Sequence	PBM E-score
CCCGTGAA	-0.101
AGGCTTCC	-0.174
TTGGTAAA	0.246
GAATCGCC	-0.285
AGGAGGCA	-0.303
CGGATGTA	0.196
TGCTGACA	0.0801
CAAGAATC	0.104
CGCAAAAA	0.117
TATAATCA	0.225
CAGGACAC	-0.0394
ATCAACGA	0.0337
AACAACCG	0.156
AAATATAT	0.297
AACACCCA	-0.0548
ACATTGCG	0.249
ATTCGTGA	0.0967
GCACGAAA	0.0721
GCGCTGTA	0.0785
